Test results: PubChem BioAssay (NCATS)
The shares of active, inactive and inconclusive entries below differ from those in the screen. For part of these data: Where the call is inconclusive, the potency comes from a doubtful curve fit. Activity calls are given as the source filed them. The call rests on the fitted dose curve; in most records, active means well fitted curve in the direction sought with a large enough effect; inconclusive means small, poorly fitted or top-dose-only effect, or another doubt; inactive means no such curve, though single readings can be large; an effect the other way counts as inactive or inconclusive.

What was measured:
[1] = Primary qHTS for inhibitors of nuclear receptor binding SET domain protein 2 (NSD2) in an RCH-ACV wild type WT cells (2C) (AID 1645877); further: nearly all actives have a fitted effect of over 70% in size
[2] = target: Phospholipid hydroperoxide glutathione peroxidase GPX4 (Homo sapiens) (UniProt P36969); assay: Primary qHTS Assay for Inhibitors of Recombinant Selenoprotein Glutathione Peroxidase 4 (GPX4) (AID 1845192); further: nearly all actives have a fitted effect of over 65% in size
Chain of UniProt P36969 (P36969 whole entry, looked up): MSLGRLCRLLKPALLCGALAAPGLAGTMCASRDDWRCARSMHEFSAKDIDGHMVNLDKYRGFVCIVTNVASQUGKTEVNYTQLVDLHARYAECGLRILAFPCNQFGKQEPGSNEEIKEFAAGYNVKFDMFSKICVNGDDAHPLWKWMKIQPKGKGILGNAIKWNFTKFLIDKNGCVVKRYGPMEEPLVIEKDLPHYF
Outline: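 NADPH consumption, followed by fluorescence at 340/450 nm between 0 and 15 min, reports GPX4 activity via coupled glutathione reductase (100 nM). Enzyme 200 nM was pre-exposed to compound 30 min; 0.5 mM cumene hydroperoxide and 1 mM GSH served as substrates.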

[3] = Primary fluorescence-based thiol-reactive (MSTI) qHTS assay for identification of artifact compounds. (AID 1845221);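 further: thiol-reactive compounds lower the probe fluorescence signal; nearly all actives have a fitted effect of over 65% in size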
Outline: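 Curve-fitted percent inhibition (4-parameter Hill) derived from fluorescence, Ex 525/Em 598 nm, scaled with Acetyl-MSTI and MSTI; 1 h incubation at room temperature.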

[4] = Primary redox qHTS assay for identification of artifact compounds. (AID 1845223)
Outline: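 Amplex Red (25 uM) and HRP (250 mU/mL) in HBSS, with compounds for 15 min, then 250 uM DTT for 30 min, room temperature, dark. Fluorescence 525/598 nm read; normalized to DMSO and 10 uM DA3003; Hill fit.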

[5] = target: Rap guanine nucleotide exchange factor 3 (Homo sapiens) (UniProt O95398); assay: Confirmatory qHTS for antagonist of cAMP-regulated guanine nucleotide exchange factor 3 (EPAC1) (AID 1645880); settings: EPAC1 Rap1B-BODIPY-GDP exchange, fluorescence; series mostly up to 115 µM; further: nearly all actives have a fitted effect of over 55% in size
Chain of UniProt O95398 (O95398 whole entry, looked up): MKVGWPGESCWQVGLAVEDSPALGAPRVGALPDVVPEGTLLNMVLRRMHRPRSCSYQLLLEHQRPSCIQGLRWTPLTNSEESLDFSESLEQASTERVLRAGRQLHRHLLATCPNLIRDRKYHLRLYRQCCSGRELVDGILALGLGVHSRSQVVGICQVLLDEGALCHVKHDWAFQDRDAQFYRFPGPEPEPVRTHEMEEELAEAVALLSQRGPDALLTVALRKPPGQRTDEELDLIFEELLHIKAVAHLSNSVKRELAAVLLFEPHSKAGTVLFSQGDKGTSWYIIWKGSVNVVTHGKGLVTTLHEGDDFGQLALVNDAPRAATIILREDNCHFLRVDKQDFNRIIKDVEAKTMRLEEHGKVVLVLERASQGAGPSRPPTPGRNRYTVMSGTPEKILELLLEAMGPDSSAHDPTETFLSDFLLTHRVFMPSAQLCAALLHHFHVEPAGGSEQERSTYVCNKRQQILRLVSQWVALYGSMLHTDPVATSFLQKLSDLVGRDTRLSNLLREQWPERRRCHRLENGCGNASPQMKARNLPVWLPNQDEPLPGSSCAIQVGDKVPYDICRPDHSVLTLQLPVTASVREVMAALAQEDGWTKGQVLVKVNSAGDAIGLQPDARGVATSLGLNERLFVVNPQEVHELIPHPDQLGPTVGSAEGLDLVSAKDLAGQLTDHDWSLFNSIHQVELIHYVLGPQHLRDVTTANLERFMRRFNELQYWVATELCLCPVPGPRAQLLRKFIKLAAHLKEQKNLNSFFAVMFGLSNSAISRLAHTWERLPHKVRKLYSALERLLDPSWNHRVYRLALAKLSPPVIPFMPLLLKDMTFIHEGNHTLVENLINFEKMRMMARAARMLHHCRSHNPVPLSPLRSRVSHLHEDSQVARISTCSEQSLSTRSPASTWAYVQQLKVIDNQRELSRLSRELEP
Outline: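 Nucleotide exchange uses 100 nM EPAC1, 250 nM RAP1B-BODIPY-GDP and 50 uM GDP, with compounds in a concentration-titration series. After 5 min at room temperature, fluorescence (480 nm ex/540 nm em) is read every 5 min for 30 min. Data are normalized to control ATA and DMSO.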
Potency means the concentration at half of the fitted maximal effect; tags describe the fitted curve by direction and shape.

Cc1ccc(NS(=O)(=O)c2ccc3c(c2)C2C=CCC2C(c2ccc(C(=O)O)cc2)N3)cc1C (stereo not drawn)
Potency [1]: inactive | Potency [2]: active: 22.7 µM

O=C(O[C@H]1[C@@H]2C[C@@H]3OC[C@](O)([C@@H]1Cl)[C@H]2C(O[C@@H]1O[C@H](CO)[C@@H](O)[C@H](O)[C@H]1O)O3)c1ccc(O)c(O)c1 (stereo partly drawn)
Potency [1]: inactive | Potency [3]: active: 1.46 µM

C[C@H](NC(=O)[C@H]1NCC[C@@H]1O)c1ccc(-c2noc(CCC3CCCC3)n2)cc1
Potency [1]: inactive

CC(CO)C1CCC2(C)CC3C(CO)CC(O)C3C(C)(O)C/C=C/12 (stereo not drawn)
Potency [1]: inactive | Potency [3]: inconclusive: 11.7 µM [inhibitor, partial curve, poor fit] | Potency [4]: inconclusive: 20.7 µM [activator, partial curve, poor fit]

CCOc1ccc(Cc2cc([C@@H]3O[C@H](CO)[C@@H](O)[C@H](O)[C@H]3O)ccc2Cl)cc1
Potency [1]: inactive

CCCC1=CC2=C(CO1)C(=O)C(C)(OC(=O)c1c(C)cc(OC)cc1O)C(O)C2 (stereo not drawn)
Potency [1]: inconclusive: 8.93 µM [inhibitor, single point] | Potency [3]: inactive

COc1cc([C@H]2OC[C@]3(OC(C)=O)[C@@H](c4ccc(O[C@@H]5O[C@H](CO)[C@@H](O)[C@H](O)[C@H]5O)c(OC)c4)OC[C@H]23)ccc1O
Potency [1]: inactive

C#Cc1ccc([C@@H]2C=C(C(=O)NCc3nc4ccccc4[nH]3)O[C@H](OCC)[C@H]2CCCO)cc1
Potency [5]: inactive

CCc1ccc2c(c1)NC(=O)C2(C)Cc1ccc(C(F)(F)F)o1 (stereo not drawn)
Potency [5]: inconclusive: 42.6 µM [inhibitor, partial curve]

Oc1cccc(-c2nc3ncccn3c2Nc2cccc(C(F)(F)F)c2)c1
Potency [5]: inconclusive: 84.9 µM [inhibitor, partial curve, poor fit]

CCN(CC)c1ccccc1/C=C/[n+]1ccc(CCCCI)c2ccccc21
Potency [5]: inconclusive: 49.8 µM [inhibitor, partial curve, poor fit]

CCOC(=O)COc1ccc(/C=C(\C#N)c2nc3ccc(C)cc3[nH]2)cc1OC
Potency [5]: inconclusive: 95.3 µM [inhibitor, single point]

O=C(Nc1cccnc1)c1c(O)c2cccc3c2n(c1=O)CC3
Potency [5]: inconclusive: 7.94 µM [inhibitor, full curve, poor fit]
